{
  "source": "PubChem BioAssay AID686979",
  "about": "(National Center for Advancing Translational Sciences (NCATS), 2013)",
  "note": "Hit rate of the full screen: of about 420,000 compounds, about 50,000 (12%) were called active. The inconclusive results got no clear call from the source; some entries with a clear call stand among them for comparison. Calls follow the shape of the dose curve; as a rule, active = well fitted inhibition curve with a large enough effect; inconclusive = small, poorly fitted or top-dose-only effect; inactive = flat fitted curve, though single readings scatter. Potencies of inconclusive entries are left out as doubtful fits. Where a structure was tested more than once in an assay, its records may differ in their call.",
  "data": [
    {"assay": "qHTS for Inhibitors of human tyrosyl-DNA phosphodiesterase 1 (TDP1): qHTS in cells in presence of CPT; also: nearly all actives have a fitted effect of over 55% in size; also: potency is read from the fitted curve at half-maximal effect; tags tell the direction and shape of the fitted curve; as to activity change, negative = growth inhibition: % is scaled to controls: 0 for no effect and ±100 for the full control effect", "conditions": "chicken DT40 Tdp1-/-;hTDP1 cells + 20 nM CPT, ATP luminescence, 48 h; activity change, negative = growth inhibition: at 46.2 µM (top of the series) unless noted", "outline": "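Cell growth measured by CellTiter-Glo luminescence after a minimum 48 h, 37 C compound exposure with 20 nM CPT in Tdp1-knockout DT40 cells stably expressing hTDP1, seeded 400/well; qHTS titration format.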", "values": [
      {"molecule": "CC1CC(NC(=O)Cc2ccc(Br)cc2)CC(C)(C)C1", "note": "(configuration not stated)", "Potency": "active: 16.4 µM"},
      {"molecule": "Cc1cccc(N2CCN(C(=O)c3cccc(N4CCCC4=O)c3)CC2)c1C", "Potency": "inconclusive [inhibitor, single point]"},
      {"molecule": "Cc1ccc(-c2nnc(N3CCCCC3)c3ccccc23)cc1S(=O)(=O)NCC1CCCO1", "note": "(configuration not stated)", "Potency": "active: 18.4 µM"},
      {"molecule": "O=C(COc1ccccc1C(=O)Nc1ccccc1)Nc1cccc(Br)c1", "Potency": "inconclusive [inhibitor, single point]"},
      {"molecule": "CN(C(=O)COC(=O)C1CCN(S(=O)(=O)c2c(Cl)cccc2Cl)CC1)c1ccccc1", "activity change, negative = growth inhibition": "inconclusive: -35.6% [inhibitor]"},
      {"molecule": "Cc1csc2c(=O)[nH]cnc12", "activity change, negative = growth inhibition": "inactive: 15.9%"},
      {"molecule": "COc1ccc(CCNC(=O)CSc2nc3cc(Cl)ccc3o2)cc1OC", "Potency": "inconclusive [inhibitor, single point]"},
      {"molecule": "COC(=O)c1ccc(Cn2nnc3ccccc3c2=O)o1", "activity change, negative = growth inhibition": "inactive: -10.6%"},
      {"molecule": "C[C@]12CC[C@@H]3c4ccc(OC(=O)c5ccccc5)cc4CC[C@H]3[C@@H]1CC[C@@H]2O", "Potency": "active: 14.6 µM"},
      {"molecule": "O=C(CSc1nc2ccccc2c(=O)[nH]1)c1ccc(O)cc1O", "Potency": "active: 13 µM"},
      {"molecule": "COc1ccccc1CNC(=O)CN(C)S(=O)(=O)c1ccc2c(c1)c(=O)n(C)c(=O)n2C", "activity change, negative = growth inhibition": "inactive: 2.29%"},
      {"molecule": "O=C(Nc1cccc(NC(=O)c2ccco2)c1)c1ccc2c(c1)OCCO2", "Potency": "inconclusive [inhibitor, partial curve]"},
      {"molecule": "CC1(C(=O)NS(=O)(=O)C2CC2)CCCN(C(=O)/C=C/c2ccccc2)C1", "note": "(configuration not stated)", "Potency": "inconclusive [inhibitor, single point]"},
      {"molecule": "COc1ccc(N2CCN(c3ccc(-c4nc(-c5ccccc5C)no4)cc3[N+](=O)[O-])CC2)cc1", "Potency": "inconclusive [inhibitor, full curve]"},
      {"molecule": "Cc1ccc(NC(=O)N2CCC(N3CCN(Cc4ccccc4)C(=O)C3=O)CC2)cc1Cl", "Potency": "inconclusive [inhibitor, single point]"},
      {"molecule": "CC(=O)Nc1ccc(NCC(=O)c2ccccc2)cc1", "Potency": "inconclusive [inhibitor, single point]"},
      {"molecule": "c1ccc(Cc2nnc(Sc3ccccc3)c3ccccc23)cc1", "Potency": "inconclusive [inhibitor, single point]"},
      {"molecule": "O=C(NCC1CCN(Cc2ccc(F)cc2)CC1)C1CCCN(c2ncnc3c2nc2n3CCCCC2)C1", "note": "(configuration not stated)", "Potency": "inconclusive [inhibitor, single point]"},
      {"molecule": "CC(O)(c1ccccc1)c1nc(-c2ccncc2)cs1", "note": "(configuration not stated)", "Potency": "active: 4.11 µM"},
      {"molecule": "CC[C@H](C)[C@H]1CNC(=S)N1CC1CCN(CCC23CC4CC(CC(C4)C2)C3)CC1", "Potency": "inconclusive [inhibitor, single point]"},
      {"molecule": "Cc1ccc(C23CC4CC(CC(C(=O)NC(C)C)(C4)C2)C3)cc1", "Potency": "inconclusive [inhibitor, single point]"},
      {"molecule": "Cc1cnc(NC2=NCCC2)s1", "activity change, negative = growth inhibition": "inactive: 9.14%"},
      {"molecule": "Cc1onc(-c2ccccc2Cl)c1C(=O)Nc1ccc(Br)cc1", "activity change, negative = growth inhibition": "inactive: -23.7%"},
      {"molecule": "CCN1CCN(c2nc(Nc3cc(OC)ccc3OC)nc(Nc3cc(OC)ccc3OC)n2)CC1", "Potency": "inconclusive [inhibitor, single point]"},
      {"molecule": "COc1ccc(OC)c(NC(=O)c2nnn(Cc3ccccc3C)c2N)c1", "Potency": "inconclusive [inhibitor, partial curve, poor fit]"},
      {"molecule": "COc1cc(SC)ccc1C(=O)N1CCCCCC1", "activity change, negative = growth inhibition": "inconclusive: -33.1% [inhibitor]"},
      {"molecule": "Cc1ccc2oc(=O)c3cc(C(=O)N4CCN(c5ccccc5)CC4)sc3c2c1", "activity change, negative = growth inhibition": "inactive: 4.46%"},
      {"molecule": "O=C(COC(=O)C1(c2ccc(Cl)cc2)CCCC1)N1CCc2ccccc21", "Potency": "inconclusive [inhibitor, single point]"},
      {"molecule": "CCOc1ccc(NC(=S)N=Nc2c(O)[nH]c3ccccc23)cc1", "Potency": "active: 9.2 µM"},
      {"molecule": "Cn1nnnc1SCCCNCc1ccc(-c2ccc(Br)cc2)o1", "Potency": "active: 20.6 µM"},
      {"molecule": "NC(=S)c1ncc(C(F)(F)F)cc1Cl", "activity change, negative = growth inhibition": "inactive: 4.44%"},
      {"molecule": "CC(=O)Nc1ccc(NC(=O)C(C)Oc2ccc(Cl)cc2Cl)cc1", "note": "(configuration not stated)", "activity change, negative = growth inhibition": "inactive: -8.72%"},
      {"molecule": "COc1cc(C)ccc1S(=O)(=O)NC(=O)C1(C)CCN1C(=O)Cc1ccc(C(C)(C)C)cc1", "note": "(configuration not stated)", "activity change, negative = growth inhibition": "inactive: 0.0299%"},
      {"molecule": "COc1ccccc1CC(=O)Nc1cc(S(=O)(=O)N2CCOCC2)ccc1N1CCOCC1", "activity change, negative = growth inhibition": "inactive: -21.5%"},
      {"molecule": "COc1ccccc1CNC(=O)CCn1c(=O)c2ccccc2n(CC(=O)Nc2ccc(C)cc2)c1=O", "Potency": "inconclusive [inhibitor, single point]"},
      {"molecule": "Cc1ccccc1CCNC(=O)c1ccc2c(c1)c(C)c(C)n2C", "Potency": "inconclusive [inhibitor, single point]"},
      {"molecule": "O=C(CN(Cc1ccc(F)cc1)C(=O)CNS(=O)(=O)c1ccc(F)cc1)NCc1ccco1", "activity change, negative = growth inhibition": "inactive: -19.9%"},
      {"molecule": "Nc1nnc(SCC(=O)Nc2cccc(S(=O)(=O)N3CCOCC3)c2)s1", "activity change, negative = growth inhibition": "inactive: -7.8%"},
      {"molecule": "C[C@@H]1CCCCCCCCC(=O)OCCN1C(=O)OC(C)(C)C", "Potency": "active: 16.4 µM"},
      {"molecule": "Cc1cc(C)c(CN2CCN(C(=O)Cn3cnc4c(NCc5ccccc5)ncnc43)CC2)c(C)c1", "Potency": "active: 5.8 µM"},
      {"molecule": "COc1ccc(-n2c(=O)[nH]cc(C(=O)Nc3ccc4c(c3)OCO4)c2=O)cc1OC", "activity change, negative = growth inhibition": "inactive: 0.0582%"},
      {"molecule": "Cc1ccc(-c2c[n+](CC(=O)Nc3c(C)cccc3C)c3n2CCC3)cc1", "Potency": "inconclusive [inhibitor, single point]"},
      {"molecule": "COc1cc(C2NC(=O)C(C#N)=C(S)N2c2ccccc2)ccc1OC(C)C", "note": "(configuration not stated)", "Potency": "inconclusive [inhibitor, single point]"},
      {"molecule": "COC(=O)c1sc2ccccc2c1-n1cccc1C(=O)C(=O)Nc1ccc(C)cc1", "Potency": "inconclusive [inhibitor, single point]"},
      {"molecule": "CCC1CN(C(=O)NCc2ccc(C)cc2)c2cc(C)ccc2O1", "note": "(configuration not stated)", "Potency": "active: 23.1 µM"},
      {"molecule": "COc1cc(/C=C2\\SC(=O)N(CC(=O)Nc3cccc(C)c3)C2=O)cc([N+](=O)[O-])c1O", "Potency": "inconclusive [inhibitor, single point]"},
      {"molecule": "Cc1ccc(NC(=O)CNC(=O)Cn2cnc3sc(C)c(C)c3c2=O)cc1F", "Potency": "inconclusive [inhibitor, single point]"},
      {"molecule": "O=S(=O)(NCc1ccccc1)c1cccs1", "Potency": "active: 0.082 µM"},
      {"molecule": "CN1CCN(C(=O)/C(=C/c2ccc(F)cc2)c2ccsc2)CC1", "Potency": "inconclusive [inhibitor, single point]"},
      {"molecule": "C#CCOC(=O)CN1C(=O)c2cccc3cccc(c23)C1=O", "activity change, negative = growth inhibition": "inactive: -3.94%"},
      {"molecule": "Cc1cc(NC(=O)CCC(=O)N(Cc2ccco2)C2(C(=O)NC3CCCC3)CCC(C)CC2)no1", "note": "(configuration not stated)", "Potency": "inconclusive [inhibitor, partial curve]"},
      {"molecule": "COc1cc(O)c(C(CCN2CCN(c3ccccc3)CC2)c2ccc3c(c2)OCO3)c(OC)c1", "note": "(configuration not stated)", "Potency": "active: 23.1 µM"},
      {"molecule": "Cc1ccc(NC(=O)c2oc3ccccc3c2NC(=O)C2CCCO2)cc1C", "note": "(configuration not stated)", "Potency": "active: 10.3 µM"},
      {"molecule": "Cc1cccc(-c2cc(N3CCCN(C)CC3)n3nccc3n2)c1", "Potency": "inconclusive [inhibitor, single point]"},
      {"molecule": "O=C(NC1CCCCC1)C(c1ccco1)N(Cc1ccco1)C(=O)c1ccco1", "note": "(configuration not stated)", "Potency": "inconclusive [inhibitor, partial curve]"},
      {"molecule": "Cc1nc2sccn2c(=O)c1S(=O)(=O)NCC1CCN(Cc2ccc(Cl)cc2)CC1", "Potency": "inconclusive [inhibitor, single point]"},
      {"molecule": "Cc1sc2nc[nH]c(=S)c2c1-c1ccccc1", "Potency": "inconclusive [inhibitor, single point]"},
      {"molecule": "CCn1c(=N)c(C(=O)NC)cc2c(=O)n3cccc(C)c3nc21", "Potency": "inconclusive [inhibitor, single point]"},
      {"molecule": "Clc1cccc(Cl)c1C[n+]1cccc2ccccc21", "Potency": "active: 2.06 µM"},
      {"molecule": "O=C(CCNC(=O)Cn1ccc2ccccc2c1=O)NCCc1ccccc1Cl", "Potency": "inconclusive [inhibitor, single point]"},
      {"molecule": "COc1ccccc1NC(=S)NNC(=S)Nc1ccc(OC(F)F)cc1", "Potency": "inconclusive [inhibitor, single point]"},
      {"molecule": "CC(=O)Oc1ccc2ccc3ccc(C(C)=O)cc3c2c1", "Potency": "inconclusive [inhibitor, single point]"},
      {"molecule": "C#CCNC(=O)C1=C[C@H](c2csc3ccccc23)C[C@H](OCCCCO)O1", "Potency": "inconclusive [inhibitor, single point]"},
      {"molecule": "CC(C)C(=O)N1CCN(c2ccccc2NC(=O)c2ccc3c(c2)OCCO3)CC1", "activity change, negative = growth inhibition": "inactive: -7.66%"},
      {"molecule": "COC(=O)c1ccccc1NC(=S)NC(NC(=O)c1ccccc1[N+](=O)[O-])C(Cl)(Cl)Cl", "note": "(configuration not stated)", "activity change, negative = growth inhibition": "inactive: -0.346%"},
      {"molecule": "COc1ccc(-n2nc(C(=O)N3CCC(N4CCCCC4)CC3)c3c4ccccc4n(C)c3c2=O)cc1", "Potency": "inconclusive [inhibitor, single point]"},
      {"molecule": "COc1ccc(OCc2nnc(SCC(=O)Nc3cccc(C(C)=O)c3)o2)cc1", "activity change, negative = growth inhibition": "inactive: -7.19%"},
      {"molecule": "COc1cccc(C2=CC(=O)CC(c3ccco3)C2)c1", "note": "(configuration not stated)", "Potency": "inconclusive [inhibitor, single point]"},
      {"molecule": "COc1ccc2nc(NC(=O)C3CCCN(S(=O)(=O)c4c(C)noc4C)C3)sc2c1", "note": "(configuration not stated)", "Potency": "inconclusive [inhibitor, single point]"},
      {"molecule": "CC(C)N(C(=O)NC(=O)NCC1CCCO1)S(C)(=O)=O", "note": "(configuration not stated)", "Potency": "inconclusive [inhibitor, full curve, poor fit]"},
      {"molecule": "Cc1nn(Cc2ccc(Cl)cc2)c(C)c1NC(=O)c1c(-c2ccccc2)noc1C", "Potency": "active: 16.4 µM"},
      {"molecule": "CCOC(=O)/C(=C\\C=C\\c1ccccc1)NC(=O)c1ccccc1", "Potency": "inconclusive [inhibitor, single point]"}
    ]}
  ]
}
